We go through 83 variants from the RNAGym collection of RNA variant scans (doi:10.1073/pnas.2313332121).

Variants at the background level are over-represented here.

B1: TPR 5TU (parent)
chain: GGAUCUUCUCGAUCUAACAAAAAAGACAAAUCUGCCACAAAGCUUGAGAGCAUCUUCGGAUGCAGAGGCGGCAGCCUUCGGUGGCGCGAUAGCGCCAACGUUCUCAACUAUGACACGCAAAACGCGUGCUCCGUUGAAUGGAGUUUAUCAUG

The variants in the data set derive from B1. Briefly: polymerase ribozyme fitness, log enrichment relative to wild type (log ratio); higher = more active; in vitro selection for triplet polymerase activity. An outline of the steps: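 Each subunit of a heterodimeric triplet polymerase ribozyme was represented by a PCR-built, transcribed mutant library that underwent triplicate single-round in vitro selection with frozen incubation at −7 °C. Extended constructs were recovered by gel excision, streptavidin-bead capture and RT-PCR, and Illumina sequencing of input and output libraries kept genotypes with ≥10 input reads and ≥1 read per output. Fitness is the logarithm of genotype enrichment relative to wild-type enrichment, from inverse-variance-weighted replicate averages, with a logarithm base of 2.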
Turning to C43U C63U A73C U78A G84U U90G C93U A119U A142U, the “polymerase ribozyme fitness (log ratio)” value is not above -4.2. Next, U44A C105G: not above -4.2; C43G U55A G70A C79A G81U C93U U139G: not above -4.2; U45A A60U C76A C87G: not above -4.2.

U44A C76A U82G G100A C103G A137G: the “polymerase ribozyme fitness (log ratio)” value is not above -4.2. Then U44A G68A C96U A119U C149A, with not above -4.2; and U44A A49G, with not above -4.2. Next, U44A A49C: -4.06; U45A C75U: not above -4.2; C43U G50U C76A G83A C95U: not above -4.2. On to U45A A49G G50C C87A U134G G136U A142G, for which the “polymerase ribozyme fitness (log ratio)” value is not above -4.2. As to U44A U45A G46C G58C G83C, the “polymerase ribozyme fitness (log ratio)” value was not above -4.2. Next, U44A G62A G84A U134A: not above -4.2; C43G U78C A98U: not above -4.2; C43U C132U: not above -4.2.

Consider U44A U55A C69G G86U G141A, for which the “polymerase ribozyme fitness (log ratio)” value is -4.2.

U44G A47G C69U U82G G92U: the “polymerase ribozyme fitness (log ratio)” value is not above -4.2. Then C43G U55A U61G G86A A89G A122U, with not above -4.2; and C43U U61G A64C U77G C85U A110U C116G, with -4.02.

With C43G U44A C75G C129A G133C, the “polymerase ribozyme fitness (log ratio)” value was not above -4.2. Next, U44A U53G G67A U78A G81C G88A G92C A138U: not above -4.2; U45A G46C C57U G81U C93U: not above -4.2; C43U U56A A66C C75A C85G: not above -4.2.

Regarding U44A G50U U56A G70A C108A, the “polymerase ribozyme fitness (log ratio)” value is not above -4.2. Regarding U45A C76U C125G, the “polymerase ribozyme fitness (log ratio)” value was -3.81.

For the variant U44A C79G C85A U111G G133C, the “polymerase ribozyme fitness (log ratio)” value was not above -4.2. Turning to U44G G50A G58A C93A G133U, the “polymerase ribozyme fitness (log ratio)” value is not above -4.2. For the variant U44G G48A G84A, the “polymerase ribozyme fitness (log ratio)” value was not above -4.2.

For U45A C79G G84C C93G U102G, the “polymerase ribozyme fitness (log ratio)” value is not above -4.2. Consider U44G U56G G70C C85G, for which the “polymerase ribozyme fitness (log ratio)” value is not above -4.2.

On to U45A G65U, for which the “polymerase ribozyme fitness (log ratio)” value is not above -4.2. Then U44G G71A U77C C95U C116G, with not above -4.2.

U45A C54G U56A U82G A91C: the “polymerase ribozyme fitness (log ratio)” value is not above -4.2. Regarding U44A U55A C125G, the “polymerase ribozyme fitness (log ratio)” value was not above -4.2.

As to U44G A64C G65U C69U G86A, the “polymerase ribozyme fitness (log ratio)” value is not above -4.2. In the case of U44A G58U G70C C76A A91G A115C, the “polymerase ribozyme fitness (log ratio)” value is not above -4.2. Take U45A A47U G86U C125A: the “polymerase ribozyme fitness (log ratio)” value is not above -4.2.

C43U G67C A73U C95U: the “polymerase ribozyme fitness (log ratio)” value is not above -4.2. On to C43U U44A U77C C87A G140A, for which the “polymerase ribozyme fitness (log ratio)” value was not above -4.2. Take U44A A49C U55A C96U A106G A122G G141U: the “polymerase ribozyme fitness (log ratio)” value was not above -4.2. In the case of U44A A66U C105G C118A A137U, the “polymerase ribozyme fitness (log ratio)” value is not above -4.2. For U44G A91C G143U, the “polymerase ribozyme fitness (log ratio)” value was not above -4.2. For the variant U44C G46U C93U G140A U148G, the “polymerase ribozyme fitness (log ratio)” value is not above -4.2. On to U44G C51U U82G C99G A115C G124A G128U G143C, for which the “polymerase ribozyme fitness (log ratio)” value is not above -4.2. Take U44A A66U C76U G88U C96U: the “polymerase ribozyme fitness (log ratio)” value was not above -4.2.

Take U44C C87U U104C A122C: the “polymerase ribozyme fitness (log ratio)” value is not above -4.2. For the variant U45A A64C U82C C85U, the “polymerase ribozyme fitness (log ratio)” value was not above -4.2. C43G U90C C116G: the “polymerase ribozyme fitness (log ratio)” value is not above -4.2. Next, U44A C103A: not above -4.2. Next, U44A C57U: not above -4.2; C43U C99G G126A G133U: not above -4.2. Next, U44A C63A G68U G86C A121U: not above -4.2; C43U G84A C103A U104C G141C: not above -4.2. In the case of C43U A47C G70A, the “polymerase ribozyme fitness (log ratio)” value was not above -4.2.

U44G G58C A97U A113C: the “polymerase ribozyme fitness (log ratio)” value was not above -4.2.

As for C43U G86U C125A, the “polymerase ribozyme fitness (log ratio)” value is not above -4.2.

In the case of C43U C105A A113U C132U, the “polymerase ribozyme fitness (log ratio)” value was not above -4.2. In the case of U45A A52G C116G, the “polymerase ribozyme fitness (log ratio)” value was -3.56. For the variant U45A C57G C75U, the “polymerase ribozyme fitness (log ratio)” value was not above -4.2. Then U44A U53C G86A A147C, with not above -4.2; and C43U G80A G94A A115G, with not above -4.2; and U44A A49U C72G C79G G92U A150G, with not above -4.2. As for C43U U56A C87A G152U, the “polymerase ribozyme fitness (log ratio)” value was not above -4.2. Take C43U C72U G92U: the “polymerase ribozyme fitness (log ratio)” value was not above -4.2.

As for C43U G86U A110G, the “polymerase ribozyme fitness (log ratio)” value was not above -4.2. Turning to U44A C93A U101C A113U G117A U134A, the “polymerase ribozyme fitness (log ratio)” value is not above -4.2.

C43U C85U A89G A97G A150G: the “polymerase ribozyme fitness (log ratio)” value is not above -4.2. As to U44A A66G U77C G84A A107U C118U U134A, the “polymerase ribozyme fitness (log ratio)” value is not above -4.2. In the case of C43U C54A U55C C85U C99G A147G, the “polymerase ribozyme fitness (log ratio)” value is not above -4.2. As to U44G U55G C63G G92C G152A, the “polymerase ribozyme fitness (log ratio)” value is not above -4.2.

U44A U53A G86U C132U U135G: the “polymerase ribozyme fitness (log ratio)” value is not above -4.2. For U44A U55A U77C C87U U148G, the “polymerase ribozyme fitness (log ratio)” value was not above -4.2.

Consider U44A G88A A120G, for which the “polymerase ribozyme fitness (log ratio)” value is not above -4.2. For the variant U44A G92A G141U, the “polymerase ribozyme fitness (log ratio)” value was not above -4.2. Next, C43U G59C U77A U111C: not above -4.2; C43U G58A A60U U82G C93A A115C: not above -4.2. As to U44A C72G U77G U90G G141U, the “polymerase ribozyme fitness (log ratio)” value is not above -4.2. Then U45A G59C C85A A89G U111G, with not above -4.2; and C43U G62A A119U U134A, with not above -4.2.

As to U44A C96U, the “polymerase ribozyme fitness (log ratio)” value is not above -4.2. For the variant U44A U144A, the “polymerase ribozyme fitness (log ratio)” value is not above -4.2. For U44G A89G G92C C96G U145G, the “polymerase ribozyme fitness (log ratio)” value was not above -4.2.

Take U45A C87G: the “polymerase ribozyme fitness (log ratio)” value was not above -4.2.
